Measured values: the antibiotic and cytotoxicity screens of Wong et al. (2023)
Some of the results follow.

Columns and labels:
[1] = test system: HSkMC (human skeletal muscle cells); assay: cytotoxicity call (relative viability < 0.9); conditions: 10 µM
[2] = test system: HepG2; assay: cytotoxicity call (relative viability < 0.9); conditions: 10 µM
[3] = test system: S. aureus RN4220; assay: growth inhibition call (relative growth <= 0.2); conditions: 50 µM

O=C[C@H](O)[C@@H](O)[C@H](O)[C@H](O)CO
inactive: cytotoxicity call [1] | cytotoxicity call [2] | growth inhibition call [3]

C[C@H](CO)N1C[C@H](C)[C@@H](CN(C)C(=O)Nc2ccc(F)cc2)Oc2c(NS(C)(=O)=O)cccc2C1=O
inactive: cytotoxicity call [1] | cytotoxicity call [2] | growth inhibition call [3]

C[C@H](CO)N1C[C@H](C)[C@H](CN(C)C(=O)Nc2ccccc2F)Oc2ncc(C#CCN(C)C)cc2C1=O
inactive: cytotoxicity call [1] | cytotoxicity call [2] | growth inhibition call [3]

CCCNC(=O)N1C[C@@H](C)[C@H](OC)CN(C)C(=O)c2ccc(NS(=O)(=O)CC(F)(F)F)cc2OC[C@@H]1C
inactive: cytotoxicity call [1] | cytotoxicity call [2] | growth inhibition call [3]

CC(=O)NCC(=O)O.CC(=O)NCC(=O)O.N=C(N)c1ccc(N=NNc2ccc(C(=N)N)cc2)cc1
inactive: cytotoxicity call [1] | cytotoxicity call [2] | growth inhibition call [3]
